The test has as its system P388 leukemia ip, CD2F1 mice, survival T/C. The test is described as follows: NCI In Vivo Anticancer Drug Screen. Data for tumor model P388 Leukemia (intraperitoneal) in CD2F1 (CDF1) mice. As to conditions: endpoint: median survival time, higher = longer survival. How it is done: The antitumor activity of compounds was measured in mice bearing transplantable tumors. Survival or tumor size were measured and the results are expressed as the measurement made in the treated group (T) divided by the measurement made in the vehicle treated control group (C). The tumor model used in this assay is P388 Leukemia (intraperitoneal) in CD2F1 (CDF1) mice

“And” between values parts separate entries of the source, which are not always exact repeats. Equal entries are not always repeated. The source gives many values for each of these; only a part stands here. Toxic doses and inconclusive results are not listed.

With `Cc1[nH]c(=O)[nH]c(=O)c1N(CCF)CCCl`, the T/C is 97 % of control (dose: 4.0 mg/kg/injection, schedule: Q03HX016 (ip), vehicle: acid diluted with saline); 168 % of control (dose: 14.0 mg/kg/injection, schedule: Q01DX009 (ip), vehicle: saline with Tween-80); 165 % of control (dose: 16.0 mg/kg/injection, schedule: Q01DX005 (ip), vehicle: Klucel (hydroxypropylcellulose) (HPC)); 92 % of control (dose: 16.0 mg/kg/injection, schedule: Q03HX016 (oral), vehicle: other); 186 % of control (dose: 32.0 mg/kg/injection, schedule: Q01DX005 (ip), vehicle: Klucel (hydroxypropylcellulose) (HPC)); 97 % of control (dose: 64.0 mg/kg/injection, schedule: Q01DX001 (ip), vehicle: acid diluted with saline). In addition, the T/C (dose: 64.0 mg/kg/injection, schedule: Q08DX002 (ip), vehicle: acid diluted with saline) was 97 % of control.
In the case of `COc1cc(NS(C)(=O)=O)ccc1Nc1c2ccccc2nc2ccccc12`, the T/C by setting is: (dose: 1.56 mg/kg/injection, schedule: Q01DX009 (ip), vehicle: Klucel (hydroxypropylcellulose) (HPC)) 98 % of control; (dose: 2.0 mg/kg/injection, schedule: Q04DX003 (oral), vehicle: other) 103 % of control; (dose: 3.12 mg/kg/injection, schedule: Q01DX009 (ip), vehicle: Klucel (hydroxypropylcellulose) (HPC)) 179 % of control; (dose: 4.0 mg/kg/injection, schedule: Q04DX003 (ip), vehicle: other) 169 % of control; (dose: 4.0 mg/kg/injection, schedule: Q04DX003 (oral), vehicle: other) 103 % of control; (dose: 6.25 mg/kg/injection, schedule: Q01DX001 (ip), vehicle: Klucel (hydroxypropylcellulose) (HPC)) 160 % of control and 171 % of control. Also, the T/C was 157 % of control (dose: 6.25 mg/kg/injection, schedule: Q01DX009 (ip), vehicle: Klucel (hydroxypropylcellulose) (HPC)); 216 % of control (dose: 8.0 mg/kg/injection, schedule: Q04DX003 (ip), vehicle: other); 109 % of control (dose: 9.38 mg/kg/injection, schedule: Q04DX002 (oral), vehicle: dextrose); 182 % of control and 186 % of control (dose: 12.5 mg/kg/injection, schedule: Q01DX001 (ip), vehicle: Klucel (hydroxypropylcellulose) (HPC)); 165 % of control (dose: 12.5 mg/kg/injection, schedule: Q01DX009 (ip), vehicle: Klucel (hydroxypropylcellulose) (HPC)); 207 % of control (dose: 16.0 mg/kg/injection, schedule: Q04DX003 (ip), vehicle: other). For the same compound, the T/C reads like this: (dose: 18.75 mg/kg/injection, schedule: Q04DX002 (oral), vehicle: dextrose) 111 % of control and 115 % of control; (dose: 25.0 mg/kg/injection, schedule: Q01DX001 (ip), vehicle: Klucel (hydroxypropylcellulose) (HPC)) 153 % of control and 196 % of control; (dose: 25.0 mg/kg/injection, schedule: Q01DX009 (ip), vehicle: Klucel (hydroxypropylcellulose) (HPC)) 92 % of control; (dose: 32.0 mg/kg/injection, schedule: Q04DX003 (oral), vehicle: other) 92 % of control; (dose: 75.0 mg/kg/injection, schedule: Q04DX003 (oral), vehicle: other) 94 % of control.
As for `CC[C@]1(O)C[C@H]2CN(CCc3c([nH]c4ccccc34)[C@@](C(=O)OC)(c3cc4c(cc3OC)N(C=O)[C@H]3[C@@](O)(C(=O)OC)[C@H](OC(C)=O)[C@]5(CC)C=CCN6CC[C@]43[C@@H]65)C2)C1`, the T/C (dose: 0.3 mg/kg/injection, schedule: Q01DX009 (ip), vehicle: saline) is 200 % of control; the T/C (dose: 0.5 mg/kg/injection, schedule: Q01DX010 (ip), vehicle: saline) is 209 % of control; the T/C (dose: 0.6 mg/kg/injection, schedule: Q01DX009 (ip), vehicle: water) is 95 % of control; the T/C (dose: 0.8 mg/kg/injection, schedule: Q04DX003 (ip), vehicle: saline) was 210 % of control; the T/C (dose: 0.8 mg/kg/injection, schedule: Q04DX003 (ip), vehicle: water) was 212 % of control; the T/C (dose: 0.84 mg/kg/injection, schedule: Q01DX005 (ip), vehicle: saline) is 94 % of control. In addition, the T/C by setting is: (dose: 1.0 mg/kg/injection, schedule: Q01DX005 (ip), vehicle: saline) 214 % of control; (dose: 1.0 mg/kg/injection, schedule: Q04DX004 (ip), vehicle: saline) 213 % of control; (dose: 1.5 mg/kg/injection, schedule: Q01DX003 (ip), vehicle: saline) 200 % of control; (dose: 1.5 mg/kg/injection, schedule: Q04DX004 (ip), vehicle: saline) 216 % of control; (dose: 1.67 mg/kg/injection, schedule: Q04DX003 (ip), vehicle: saline) 219 % of control; (dose: 1.8 mg/kg/injection, schedule: Q04DX003 (ip), vehicle: saline) 214 % of control and 225 % of control. The T/C is 202 % of control (dose: 2.0 mg/kg/injection, schedule: Q01DX003 (ip), vehicle: saline); 216 % of control (dose: 2.0 mg/kg/injection, schedule: Q04DX002 (ip), vehicle: saline); 94 % of control (dose: 2.7 mg/kg/injection, schedule: Q04DX003 (ip), vehicle: saline); 88 % of control (dose: 2.7 mg/kg/injection, schedule: Q04DX003 (iv), vehicle: saline); 200 % of control (dose: 3.0 mg/kg/injection, schedule: Q01DX003 (ip), vehicle: saline); 207 % of control (dose: 3.0 mg/kg/injection, schedule: Q04DX002 (ip), vehicle: saline). In addition, the T/C (dose: 3.33 mg/kg/injection, schedule: Q04DX002 (ip), vehicle: saline) is 219 % of control and the T/C (dose: 3.5 mg/kg/injection, schedule: Q04DX003 (ip), vehicle: saline) was 255 % of control.
